In the supplement of paper PMC12217912:
The other results are listed elsewhere or left out. The full chains were built here from the parent and the listed change. Inactive controls read about 0.05.

B1: TEV protease; numbered along this chain (parent)
chain: MGESLFKGPRDYNPISSSICHLTNESDGHTTSLYGIGFGPFIITNKHLFRRNNGTLVVQSLHGVFKVKDTTTLQQHLVDGRDMIIIRMPKDFPPFPQKLKFREPQREERICLVTTNFQTKSMSSMVSDTSCTFPSGDGIFWKHWIQTKDGQCGSPLVSTRDGFIVGIHSASNFTNTNNYFTSVPKNFMELLTNQEAQQWVSGWRLNADSVLWGGHKVFMVKPEEPFQPVKEATQL

Variants of: B1
Assay: raw area under fraction-flipped curve 0-4 h after induction (AUC4h, not background-subtracted), DNA-recorder readout of cleavage of the substrate (dimensionless); higher = more cleavage of the substrate by the protease variant
Conditions: temperature: 34 °C; time window: 0-4 h after rhamnose induction
Experimental: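 In vivo DNA recorder in E. coli TOP10(DE3) ΔrhaA at 34 °C. Each TEVp single-site mutant (parent TEVp 0) is paired with a single-site variant of the 7-mer TEVs (canonical ENLYFQ|S). The substrate sits between flexible linkers in a Bxb1-sfGFP-TEVs-SsrA fusion, so cleavage stabilises Bxb1 and speeds flipping of a recombination array, read by NGS. The value is the raw area under the fraction-flipped curve over 0-4 h after rhamnose induction (AUC4h), with ≥20 reads per time point. It is not background-subtracted; inactive controls average about 0.047.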
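Further: Bxb1 expression induced with 0.2% (w/v) L-rhamnose at OD600 near 0.5, cultures sampled hourly, flipped fraction per protease–substrate barcode pair counted by paired-end Illumina sequencing.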

Variant	area with substrate ENLYCQS	area with substrate ENLYGQS	area with substrate ENLYHQS	area with substrate ENLYPQS	area with substrate ENLYQQS	area with substrate ENLYYQS	area with substrate ENLYIQS	area with substrate ENLYKQS	area with substrate ENLYMQS	area with substrate ENLYNQS	area with substrate ENLYRQS	area with substrate ENLYDQS	area with substrate ENLYEQS	area with substrate ENLYLQS	area with substrate ENLYTQS	area with substrate ENLYVQS	area with substrate ENLYWQS	area with substrate ENLYSQS
MGESLFKGPRDYNPISSSICHLTNESDGHTTSLYGIGFGPFIITNKHLFRRNNGTLVVQSLHGVFKVKDTTTLQQHLVDGRDMIIIRMPKDFPPFPQKLKFREPQREERICLVTTNFQMKSMSSMVSDTSCTFPSGDGIFWKHWIQTKDGQCGSPLVSTRDGFIVGIHSASNFTNTNNYFTSVPKNFMELLTNQEAQQWVSGWRLNADSVLWGGHKVFMVKPEEPFQPVKEATQL [T119M]	0.103	0.0605	0.0768	0.0566	0.0666	0.0622												
MGESLFKGPRDYNPISSSICHLTNESDGHTTSLYGIGFGPFIITNKHLFRRNNGTLVVQSLHGVFKVKDTTTLQQHLVDGRDMIIIRMPKDFPPFPQKLKFREPQREERICLVTTNFQTKSMSSMVSDTSCTFPSGDGIFWKHWIQTKDGQCGSPLVSTRDGHIVGIHSASNFTNTNNYFTSVPKNFMELLTNQEAQQWVSGWRLNADSVLWGGHKVFMVKPEEPFQPVKEATQL [F163H]	0.115		0.0684	0.0641			0.0832	0.0216	0.0418	0.0804	0.0523							
MGESLFKGPRDYNPLSSSICHLTNESDGHTTSLYGIGFGPFIITNKHLFRRNNGTLVVQSLHGVFKVKDTTTLQQHLVDGRDMIIIRMPKDFPPFPQKLKFREPQREERICLVTTNFQTKSMSSMVSDTSCTFPSGDGIFWKHWIQTKDGQCGSPLVSTRDGFIVGIHSASNFTNTNNYFTSVPKNFMELLTNQEAQQWVSGWRLNADSVLWGGHKVFMVKPEEPFQPVKEATQL [I15L]	0.0854	0.0639	0.0626	0.0623	0.072	0.0695	0.137	0.0625	0.0781	0.0663	0.0717	0.0639	0.0635	0.0755	0.0676	0.124	0.0808	
MGESLFKGPRDYNPISSSICHLTNESDGHTTSLYGIGFGPFIITNKHLFRRNNGTHVVQSLHGVFKVKDTTTLQQHLVDGRDMIIIRMPKDFPPFPQKLKFREPQREERICLVTTNFQTKSMSSMVSDTSCTFPSGDGIFWKHWIQTKDGQCGSPLVSTRDGFIVGIHSASNFTNTNNYFTSVPKNFMELLTNQEAQQWVSGWRLNADSVLWGGHKVFMVKPEEPFQPVKEATQL [L56H]	0.0951	0.0399	0.0305	0.0435			0.0634			0.0485	0.0688		0.0369		0.0329			
MGESLFKGPRDYNPISSSICHLTNESDGHTTSLYGIGFGPFIITNKHLFRRNNGTRVVQSLHGVFKVKDTTTLQQHLVDGRDMIIIRMPKDFPPFPQKLKFREPQREERICLVTTNFQTKSMSSMVSDTSCTFPSGDGIFWKHWIQTKDGQCGSPLVSTRDGFIVGIHSASNFTNTNNYFTSVPKNFMELLTNQEAQQWVSGWRLNADSVLWGGHKVFMVKPEEPFQPVKEATQL [L56R]	0.0451	0.0478		0.044	0.0447	0.0215	0.0578	0.0535	0.0412	0.0465	0.0509	0.0508	0.0437			0.0594	0.042	0.0569
MGESLFKGPRDYNPISSSICHLTGESDGHTTSLYGIGFGPFIITNKHLFRRNNGTLVVQSLHGVFKVKDTTTLQQHLVDGRDMIIIRMPKDFPPFPQKLKFREPQREERICLVTTNFQTKSMSSMVSDTSCTFPSGDGIFWKHWIQTKDGQCGSPLVSTRDGFIVGIHSASNFTNTNNYFTSVPKNFMELLTNQEAQQWVSGWRLNADSVLWGGHKVFMVKPEEPFQPVKEATQL [N24G]	0.075	0.0652	0.0632	0.0441	0.0614	0.0619	0.0759	0.0616	0.0654	0.065	0.0638	0.0593	0.0607	0.0567	0.0644	0.0756	0.0606	0.0632
MGESLFKGPRDYNPISSSICHLTAESDGHTTSLYGIGFGPFIITNKHLFRRNNGTLVVQSLHGVFKVKDTTTLQQHLVDGRDMIIIRMPKDFPPFPQKLKFREPQREERICLVTTNFQTKSMSSMVSDTSCTFPSGDGIFWKHWIQTKDGQCGSPLVSTRDGFIVGIHSASNFTNTNNYFTSVPKNFMELLTNQEAQQWVSGWRLNADSVLWGGHKVFMVKPEEPFQPVKEATQL [N24A]	0.0587	0.0601	0.0736	0.0681	0.0439	0.0702		0.0549	0.0744	0.0633	0.0726		0.044	0.0775	0.085	0.0939	0.0641	0.086
MGESLFKGPRDYNPISSSICHLTNESDGHTTSLYGIGFGPFIITNKHLFRRNNGTLVVQSLHGVFKVKDTTTLQQHLVDGRDMIIIRMPKDFPPFPQKLKFREPQREERICLVTTNFQTKSMSSMVSDTSCTFPSGDGIFWKHWRQTKDGQCGSPLVSTRDGFIVGIHSASNFTNTNNYFTSVPKNFMELLTNQEAQQWVSGWRLNADSVLWGGHKVFMVKPEEPFQPVKEATQL [I145R]	0.0737		0.078	0.0506		0.0513	0.0752			0.0706	0.0408	0.059	0.0565	0.0473		0.0648	0.0544	0.052
MGESLFKGPRDYNPISSSICHLTNESDGHTTSLYGIGFGPFIITNKHLFRRNNGTLVVQSLHGVFKVKDTTTLQQHLVDGRDMIIIRMPKDFPPFPQKLKFREPQREERICLVTTNFQTKSMSSMVSDTSCTFPSGDGIFWKHWIQTKDGQCGSPLVSTRDGFIVGIHSASNFTNTNNYFTSVEKNFMELLTNQEAQQWVSGWRLNADSVLWGGHKVFMVKPEEPFQPVKEATQL [P184E]	0.0649	0.054	0.0534	0.0532	0.0576	0.0557		0.0622	0.0659	0.0841	0.0502	0.0575	0.0552	0.0602	0.0583			0.0522
MGESLFKGPRDYNPISSSICHLTNESDGHTTSLYGIGFGPFIITNKHLFRRNNGTLVVQSLHGVFKVKDTTTLQQHLVDGRDMIIIRMPKDFPPFPQKLKFREPQREERICLVTTNFQTESMSSMVSDTSCTFPSGDGIFWKHWIQTKDGQCGSPLVSTRDGFIVGIHSASNFTNTNNYFTSVPKNFMELLTNQEAQQWVSGWRLNADSVLWGGHKVFMVKPEEPFQPVKEATQL [K120E]	0.077	0.066		0.072		0.0675		0.0395	0.101	0.0615	0.0665	0.0731	0.0832			0.0976	0.0754	0.0825
MGESLFKGPRDYNPISSSICHLTNESDGHTTSLYGIGFGPFIITNKHLFRRNNGTLVVQSLHGVFKVKDTTTLQQHLVDGRDMIIIRMPKDFPPFPQKLKFREPQREERICLVTTNFQTISMSSMVSDTSCTFPSGDGIFWKHWIQTKDGQCGSPLVSTRDGFIVGIHSASNFTNTNNYFTSVPKNFMELLTNQEAQQWVSGWRLNADSVLWGGHKVFMVKPEEPFQPVKEATQL [K120I]	0.083		0.0458	0.0744	0.0631					0.0627	0.0527	0.0688	0.0716	0.0859		0.0904		0.0873
MGESLFKGPRDYNPISSSICHLTNESDGHTTSLYGIGFGPFIITNKHLFRRNNGTLVVQSLHGVFKVKDTTTLQQHLVDGRDMIIIRRPKDFPPFPQKLKFREPQREERICLVTTNFQTKSMSSMVSDTSCTFPSGDGIFWKHWIQTKDGQCGSPLVSTRDGFIVGIHSASNFTNTNNYFTSVPKNFMELLTNQEAQQWVSGWRLNADSVLWGGHKVFMVKPEEPFQPVKEATQL [M88R]	0.0506	0.0479	0.0435	0.0391	0.0465	0.0385	0.0446	0.0363	0.0648				0.0653		0.0337			0.0481
MGESLFKGPRDYNPISSSICHLTNESDGHTTSLYGIGFGPFIITNKHLFRRNNGTLVVQSLHGVFKVKDTTTLQQHLVDGRDMIIIRPPKDFPPFPQKLKFREPQREERICLVTTNFQTKSMSSMVSDTSCTFPSGDGIFWKHWIQTKDGQCGSPLVSTRDGFIVGIHSASNFTNTNNYFTSVPKNFMELLTNQEAQQWVSGWRLNADSVLWGGHKVFMVKPEEPFQPVKEATQL [M88P]	0.0604	0.0559	0.085				0.0965	0.0375	0.0641			0.0599	0.0658		0.0471	0.0992	0.0933	
MGESLFKGPRDYNPISSSICHLTNESDGHTTSLYGIGFGPFIITNKHLFRRNNGTLVVQSLHGVFKVKDTTTLQQHLVDGRDMIIIRMPKDFPPFCQKLKFREPQREERICLVTTNFQTKSMSSMVSDTSCTFPSGDGIFWKHWIQTKDGQCGSPLVSTRDGFIVGIHSASNFTNTNNYFTSVPKNFMELLTNQEAQQWVSGWRLNADSVLWGGHKVFMVKPEEPFQPVKEATQL [P96C]	0.0783	0.0627	0.068	0.0773	0.0642		0.19	0.0439	0.0973	0.0602		0.0564	0.0638				0.0823	
MGESLFKGPRDYNPISSSICHLTNESDGHTTSLYGIGFGPFIITNKHLFRRNNGTLVVQSLHGVFKVKDTTTLQQHLVDGRDMIIIRMPKDFPPFPQKLKFREPQREERICLVTTNFQTKSMSSMVTDTSCTFPSGDGIFWKHWIQTKDGQCGSPLVSTRDGFIVGIHSASNFTNTNNYFTSVPKNFMELLTNQEAQQWVSGWRLNADSVLWGGHKVFMVKPEEPFQPVKEATQL [S127T]	0.0955	0.0641	0.0643	0.0693	0.0676		0.128	0.061	0.139	0.079		0.0839	0.0652		0.0723	0.108	0.0913	
MGESLFKGPRDYNPISSSICHLTNESDGHTTSLYGIGFGPFIITNKHLFRRNNGTLVVQSLHGVFKVKDTTTLQQHLVDGRDMIIIRMPKDFPPFPQKLKFREPQREERICLVTTNFQTKSMSSMVSDTSCTFPSGDGIFWKHWIQTKDGQCGSPLVSTRDGFIVGIHSASNFTNTNNYFTSVPKNFMELLTNQEAQQWFSGWRLNADSVLWGGHKVFMVKPEEPFQPVKEATQL [V200F]	0.0726			0.0608		0.0647	0.0753	0.0556	0.0453		0.0509		0.058	0.0542		0.0988		
MGESLFKGPRDYNPISSSICHLTNESDGHTTSLYGIGFGPFIITLKHLFRRNNGTLVVQSLHGVFKVKDTTTLQQHLVDGRDMIIIRMPKDFPPFPQKLKFREPQREERICLVTTNFQTKSMSSMVSDTSCTFPSGDGIFWKHWIQTKDGQCGSPLVSTRDGFIVGIHSASNFTNTNNYFTSVPKNFMELLTNQEAQQWVSGWRLNADSVLWGGHKVFMVKPEEPFQPVKEATQL [N45L]	0.0581	0.0509	0.0586		0.0581	0.0625	0.0632	0.0596	0.0512	0.0456	0.0589	0.0624	0.0561			0.0539	0.0554	0.0673
MGESLFKGPRDQNPISSSICHLTNESDGHTTSLYGIGFGPFIITNKHLFRRNNGTLVVQSLHGVFKVKDTTTLQQHLVDGRDMIIIRMPKDFPPFPQKLKFREPQREERICLVTTNFQTKSMSSMVSDTSCTFPSGDGIFWKHWIQTKDGQCGSPLVSTRDGFIVGIHSASNFTNTNNYFTSVPKNFMELLTNQEAQQWVSGWRLNADSVLWGGHKVFMVKPEEPFQPVKEATQL [Y12Q]	0.0861	0.0634	0.0695	0.0853	0.0659		0.125	0.0497		0.072	0.0613	0.0524	0.0812			0.11	0.0646	0.0739
